In all, about 330,000 compounds went through this assay and about 4,200 (1.3%) were called active. The shares of active, inactive and inconclusive entries below differ from those in the screen. Calls come from the whole dose curve; as a rule, active = well fitted activation curve with a large enough effect; inconclusive = small, poorly fitted or top-dose-only effect; inactive = no such curve, though single readings can be large or run the other way. A potency beside an inconclusive call is a rough fit, not a confirmed value.
Assay: qHTS screen for small molecules that induce genotoxicity in human embryonic kidney (HEK293T) cells expressing luciferase-tagged ELG1; note: nearly all actives have a fitted effect of over 60% in size; for activity change, positive = activation: % of control where 0% means no effect
Settings: HEK293T ELG1-luciferase reporter, luminescence, 16 h; series mostly up to 46 µM; activity change, positive = activation: at the top concentration
Excerpt: NIH Molecular Libraries Probe Production Network [MLPCN] NIH Chemical Genomics Center [NCGC] MLPCN Grant: 1 R03 MH092164-01 Assay Provider: Kyungjae Myung, NHGRI, NIH Keywords: MLPCN, qHTS, NCGC, genotoxicity, cancer Assay Overview: Cancer cells divide rapidly compared to normal cells in the body. During cell division, cancer cells need to duplicate their genome by DNA replication. The failure of genome duplication leads to cancer cells' death. Therefore, inhibitors of DNA replication could specifically kill cancer cells. Based on this concept, many chemotherapeutic agents were developed and have been used to treat cancer patients. However, there are a limited number of agents available in the clinical setting, and some of those that do exist have low efficacy and severe side effects. Therefore, if we can find the compounds that effectively block DNA replication either by directly damaging DNA or by inhibiting other cellular mechanisms, the options for cancer treatment will be broadened. With this in mind, we developed a quantitative high-throughput ELG1-luciferase reporter gene assay. Since the level of human ELG1 protein is enhanced in response to genetic stresses, increases in luciferase activity can be used to identify compounds that cause genetic stress.
Assay Protocol Summary: For genotoxicity screening, 2,000 cells in 5 uL/well were dispensed into white, solid-bottom 1536-well plates using a solenoid-based dispenser. Following transfer of 23 nL compound or DMSO vehicle by a pin tool, the plates were incubated 16 hr at 37 °C and 5% CO2. 5 ul ONE-Glo (Promega) was then added to each plate and following a 30 min incubation at room temperature, luciferase activity was quantified on a ViewLux CCD-based plate reader.
Potency is the fitted concentration of half-maximal effect; tags give direction and shape of the fitted curve.

Row | Structure (SMILES) | Potency | activity change, positive = activation
1 | c1ccc(Oc2ccc(-c3ccn[nH]3)cc2)cc1 | inconclusive: 9.2 µM [activator, partial curve] | 
2 | COCC(C)n1c(C)cc(C(=O)CSc2ccc(NC(C)=O)cc2)c1C (stereo not given) | active: 7.94 µM | 
3 | Cn1c(=O)cc(OCCCC(=O)Nc2ccc3c(c2)OCCO3)c2ccccc21 | inconclusive: 23.1 µM [activator, single point] | 
4 | O=C(Nc1ccc(N2CCN(c3ccc(C(F)(F)F)cn3)CC2)nc1)c1cccs1 | inconclusive: 18.3 µM [activator, single point] | 
5 | c1ccc(C2=Nc3ccccc3NC(c3ccccc3)C2)cc1 (stereo not given) | inconclusive: 23.1 µM [activator, partial curve, poor fit] | 
6 | COc1ccc(-c2nn(-c3ccccc3)cc2C#N)cc1 | inconclusive: 16.4 µM [activator, partial curve] | 
7 | Cc1sc(NC(=O)COc2ccccc2)c(C#N)c1C | inconclusive: 8.2 µM [activator, partial curve, poor fit] | 
8 | Cc1sc2ncnc(N/N=C/c3cccc(O)c3)c2c1C | inconclusive: 23.1 µM [activator, partial curve, poor fit] | 
9 | CCc1cccc(C)c1NC(=O)Nc1c(Br)cnn1C |  | inactive: -0.886%
10 | COc1ccc(NC(=O)c2ccccc2O)c(OC)c1 | active: 11.2 µM | 
11 | Cc1cc(C)c(-c2csc(NC(=O)C3=COCCO3)n2)c(C)c1 | inconclusive: 25.9 µM [activator, single point] | 
12 | CC(C)c1ccc(CNc2ncc(Br)cn2)cc1 | inconclusive: 11.6 µM [activator, partial curve, poor fit] | 
13 | CC(C)c1ccc2nc(NC(=O)C3CC3)sc2c1 | inconclusive: 2.91 µM [activator, full curve, poor fit] | 
14 | Cc1ccc(C(=O)CCC(=O)N2CCC(C(N)=O)CC2)cc1 |  | inactive: 1.98%
15 | COc1ccc(S(=O)(=O)N2CCCCC2)cc1C(=O)Nc1cc(C)on1 |  | inactive: 0.313%
16 | CC1CCCCN1C(=O)CSc1nnc(-c2ccco2)o1 (stereo not given) | active: 20.6 µM | 
17 | O=C(N/N=C/c1ccco1)c1csc2c1CCCC2 | inconclusive: 23.1 µM [activator, partial curve, poor fit] | 
18 | COc1ccc(-c2coc3cc(OC4OC(CO)C(O)C(O)C4O)cc(O)c3c2=O)cc1 (stereo not given) | inconclusive: 3.66 µM [activator, full curve] | 
19 | C/C(=N\Nc1ncnc2sc(C)c(C)c12)c1ccccn1 | inconclusive: 31.6 µM [activator, single point] | 
20 | O=C(NC1CCCC1)C(=O)N(Cc1cccnc1)C(C(=O)NCC1CCCO1)c1ccco1 (stereo not given) |  | inactive: -1.45%

Reference: PubChem BioAssay AID504466 (National Center for Advancing Translational Sciences (NCATS), 2011)
